Screen size: about 310,000 compounds; about 2,200 (0.71%) showed an effect of 50% or more. Effects have a minus sign here. Some of the results follow.
target: human ether-à-go-go-related gene (hERG) potassium channel (human, UniProt Q12809); assay: primary screen, population patch clamp on CHO cells stably expressing hERG
Sequence (Q12809 whole entry, looked up): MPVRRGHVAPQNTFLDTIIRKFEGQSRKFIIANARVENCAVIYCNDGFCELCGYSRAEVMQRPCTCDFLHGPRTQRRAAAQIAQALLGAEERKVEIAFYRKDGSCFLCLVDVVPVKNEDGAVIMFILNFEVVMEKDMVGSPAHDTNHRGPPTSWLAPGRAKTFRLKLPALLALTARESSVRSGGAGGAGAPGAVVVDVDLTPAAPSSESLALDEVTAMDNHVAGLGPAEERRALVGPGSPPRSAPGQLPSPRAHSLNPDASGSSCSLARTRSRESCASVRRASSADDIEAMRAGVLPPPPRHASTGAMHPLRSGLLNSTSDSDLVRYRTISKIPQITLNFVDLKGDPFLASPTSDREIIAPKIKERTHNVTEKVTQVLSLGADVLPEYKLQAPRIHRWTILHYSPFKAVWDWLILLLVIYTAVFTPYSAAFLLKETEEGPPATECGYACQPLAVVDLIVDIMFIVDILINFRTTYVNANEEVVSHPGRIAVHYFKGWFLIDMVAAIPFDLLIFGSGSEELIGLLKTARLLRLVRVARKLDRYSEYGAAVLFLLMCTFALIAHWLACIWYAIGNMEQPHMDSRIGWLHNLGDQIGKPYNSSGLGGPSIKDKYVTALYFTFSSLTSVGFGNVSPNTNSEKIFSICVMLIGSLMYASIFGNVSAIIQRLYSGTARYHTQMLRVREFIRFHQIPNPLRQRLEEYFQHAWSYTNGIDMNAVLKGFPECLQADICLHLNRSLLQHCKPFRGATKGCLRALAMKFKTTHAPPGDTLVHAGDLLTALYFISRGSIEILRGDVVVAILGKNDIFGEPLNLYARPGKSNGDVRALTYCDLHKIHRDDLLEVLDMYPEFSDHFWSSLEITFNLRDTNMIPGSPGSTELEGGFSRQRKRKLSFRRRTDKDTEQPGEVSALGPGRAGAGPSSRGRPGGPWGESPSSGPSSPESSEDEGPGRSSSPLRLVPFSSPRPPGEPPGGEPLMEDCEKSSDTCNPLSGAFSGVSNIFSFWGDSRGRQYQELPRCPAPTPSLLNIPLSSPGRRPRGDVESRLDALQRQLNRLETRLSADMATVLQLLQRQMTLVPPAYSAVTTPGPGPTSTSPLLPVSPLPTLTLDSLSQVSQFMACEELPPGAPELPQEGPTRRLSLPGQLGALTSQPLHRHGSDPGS

Structure (SMILES) | hERG current change (%, negative = inhibition) at 1uM
Cc1csc(NC(=O)c2cccs2)n1 | 10.4%
Cn1cc(/C=C/c2cc[n+](C)cc2)c2cc(Cl)ccc21.[I-] | -14.2%
Fc1ccc(-c2nnn(Cc3ccccc3Cl)n2)cc1 | 4.61%
O=C(OCC(=O)N1CCN(C(=O)c2ccco2)CC1)c1ccccc1C(=O)c1ccc(Cl)cc1 | -15.4%
Cc1ccc(NC(=O)C(=O)NCc2ccco2)c(C)c1 | 20.4%
Cc1nc2ccccc2n1S(=O)(=O)N(C)C | 14.4%
CCn1c(/C(C#N)=C(\O)CCc2ccccc2)nc2ccccc21 | -0.0603%
CCOC(=O)C1=C(CSc2nc3c(cc2C#N)CN(C)CC3)OC(N)=C(C#N)C1c1ccc(Cl)cc1 (centres unmarked) | 8.12%
Cc1ccc(Cl)c(OCCCN(C)Cc2ccccc2)c1.O=C(O)C(=O)O | 11.9%
COCCN(C(=O)CNC(=O)c1ccco1)C(C(=O)NC1CCCC1)c1ccccc1 (centres unmarked) | 0.176%
O=C(COc1ccc(S(=O)(=O)NC2CCCCC2)cc1)Nc1ccc2c(c1)OCCO2 | 1.12%
CC1CCCCC1N=C1NC(C)(C)CS1 (centres unmarked) | 16%
Cn1cc(P(=S)(N2CCOCC2)N2CCOCC2)cc1P(=O)(N1CCOCC1)N1CCOCC1 | 3.24%
CNC(=O)c1c(NC(=O)c2ccc(S(=O)(=O)N3CC(C)OC(C)C3)cc2)sc2c1CCN(C(C)C)C2 (centres unmarked) | 5.05%
CCCCC1(C)OC(=O)C(=Cc2ccc(N(C)C)cc2)C(=O)O1 (centres unmarked) | 5.59%
COc1ccc(C(C)(C)C)cc1NC(=O)c1ccc2ncsc2c1 | 9.11%
O=C(c1ccccc1)c1ccc(Cn2cc(CCCO)nn2)cc1 | 3.41%
CCCCCOC(=O)Nc1nnc(CCC)s1 | -1.67%
COCCCNC(=O)CNC(=O)c1nn(-c2ccc(OC)c(Cl)c2)c(=O)c2ccccc12 | 11.4%
C/C(=N\Nc1ccccc1C)c1cccnc1.Cl | 10%
O=c1/c(=C/c2ccco2)sc2n1CN(c1ccccc1)CN=2 | 3.87%
CCCCNC(=O)COn1nnc2ccc(S(=O)(=O)N3CCOCC3)cc21 | -1.01%
COc1cc(CNc2cccc3[nH]c(C(F)(F)F)nc23)cc(OC)c1.Cl | 10.2%

Structure (SMILES) | hERG current change (%, negative = inhibition) at 1uM
OCC[C@H]1C[C@H](O)[C@@H](O)[C@@]2(Cc3ccccc3CCO2)O1 | 6.12%
Fc1ccc(OCc2nn3c(Cn4nnc5ccccc54)nnc3s2)cc1 | 8.94%
O=C(O)CN1C(=O)/C(=C\c2cccc(OCc3ccccc3F)c2)SC1=S | 10.4%
Cc1ccc(CN(Cc2ccccc2)C(=S)Nc2ccccc2C)o1 | 6%
O=C(CNC(=S)N(Cc1ccccc1)Cc1cccnc1)NC1CCCC1 | 11%
CN(CC(=O)Nc1cccc(F)c1)C(=O)C1CC(=O)N(CCc2ccccc2)C1 (centres unmarked) | 11.3%
COc1ccccc1-c1noc(CCC(=O)Nc2cccc(C(F)(F)F)c2)n1 | 0.451%
O=C(NCc1n[nH]c(=S)n1-c1cccc(Cl)c1)c1cccs1 | 9.04%
CS(=O)(=O)N(Cc1ccc(Cl)cc1)c1ccc(C(=O)NCCSc2ccccn2)cc1 | -0.841%
COc1ccc2nc(N3CCC(O)CC3)c(C#N)cc2c1 | 11.2%
CC(=O)Oc1ccccc1N(C(C)=O)S(=O)(=O)c1cccc([N+](=O)[O-])c1 | 15.4%
CN1CCN(C(=O)C2=C[C@@H](c3ccc(C(F)(F)F)cc3)C[C@@H](OCc3ccc(CO)cc3)O2)CC1 | 1.47%
N/N=C(/Cc1nc2ccccc2[nH]1)c1ccc([N+](=O)[O-])cc1 | -7.88%
COCc1[nH][nH]c(=O)c1C=Nc1ccccc1 | 13.4%
CCOc1ccc(N2CC(C(=O)Nc3cccnc3)CC2=O)cc1 (centres unmarked) | 1.94%
CCCCCn1c(CNC(C)=O)nc2ccccc21 | 6.45%
CS(=O)(=O)Nc1ccccc1C(=O)NCCSc1ccc(Cl)cc1 | 14.4%
O=C(NC1CCN(Cc2ccc(Cl)c(Cl)c2)CC1)c1ccccc1 | 10.8%
Br.Cc1nc(C)c(-c2csc(Nc3ccc(N)cc3)n2)s1 | 11.4%
CCC1CCCCN1CCCNC(=O)CCCOc1cc(=O)n(C)c2ccccc12 (centres unmarked) | 2.23%
N#Cc1c2n(c3c(=O)n(Cc4ccccc4)cnc13)CCCC2 | -8.46%
CCOc1ccc(-n2c(Cc3cc(=O)[nH]c(=O)[nH]3)nnc2SCC)cc1 | -5.41%
CN(Cc1ccccc1)c1cc(Cl)nc(N)n1 | 4.94%

Structure (SMILES) | hERG current change (%, negative = inhibition) at 1uM
O=C(CSc1nnc(-c2ccco2)n1Cc1ccco1)NCc1cccs1 | -13.3%
COc1ccc(NC(=O)NCc2ccco2)c(OC)c1 | 4.02%
Cc1ccc(CN2C(=O)C(C)Nc3ncnc(N4CCN(c5ccccn5)CC4)c32)cc1.O=C(O)C(F)(F)F (centres unmarked) | -14.5%
CCOC(=O)CC(=O)CSc1nc2c(sc(=S)n2-c2ccc(OCC)cc2)c(=O)[nH]1 | 6.59%
CCN(CC(=O)Nc1ccc2c(c1)OCCO2)CC(=O)Nc1cc(C)on1 | 12.2%
CN(C)S(=O)(=O)c1ccc(C(=O)Nc2nnc(-c3ccco3)o2)cc1 | 7.49%
O=[N+]([O-])c1ccc2nc(-c3ccccc3)cc(-c3ccccc3)c2c1 | 3.23%
Fc1ccc(COc2ccccc2C(=S)N2CCCC2)cc1 | 5.21%
COc1ccccc1Cn1c(=S)[nH]c2cc(C(=O)N3CCN(C)CC3)ccc2c1=O | -1.36%
COc1ccccc1C(=O)NC(CCSC)C(=O)OC(C)C(=O)NC1CC1 (centres unmarked) | 14.7%
COc1ccccc1-n1cc2ccc([N+](=O)[O-])cc2n1 | 14.2%
CCC(=O)N(Cc1ccco1)Cc1cc2cccc(C)c2n2nnnc12 | 12%
COc1cc2ccccc2cc1C(=O)N1CCN(C(C)=O)CC1 | 17.9%
CN(CC(=O)Nc1ccc(F)c(F)c1F)C(=O)C1CSC2(C)CCC(=O)N12 (centres unmarked) | 3.68%
COc1ccc(CNc2ccc3c(c2)nc(C)n3C)cc1OC | 8.81%
Cc1ccc(OCC(=O)N/N=C\c2ccc(C)o2)c(C)c1 | 15.7%
COc1ccc(N2C(=O)CC(Sc3n[nH]c(-c4cccc(C)c4)n3)C2=O)cc1 (centres unmarked) | 2.84%
CCSc1ccc(C(=O)Nc2ccc(Br)cn2)cc1[N+](=O)[O-] | 9.04%
Cc1nc2cc(C(=O)N3CCC4(CC3)OCCO4)ccc2n1-c1cccc(F)c1 | 0.652%
CCCC(=O)Nc1cc(C)c(NC(=O)c2ccncc2)cn1 | -7.02%
COc1ccc(NC(=O)COc2ccccc2C)cc1S(=O)(=O)N1CCCCC1 | 7.79%
CCS(=O)(=O)N1CCN(c2c(Cl)cccc2[N+](=O)[O-])CC1 | -3.15%
CC(=O)Oc1cccc(C(=O)Nc2ccccc2C(=O)N2CCCC2)c1 | 25.1%

Structure (SMILES) | hERG current change (%, negative = inhibition) at 1uM
CN(C)S(=O)(=O)c1ccc(C(=O)NNc2nc(-c3ccccc3)c3cc(Br)ccc3n2)cc1 | 8.18%
CCOc1ccc(CNC(=O)c2ccccc2NC(=O)C2=CSCCO2)cc1 | 1.32%
CN(C)c1ccc(C(CNC(=O)COc2ccc(Cl)cc2)N2CCCC2)cc1 (centres unmarked) | -8.47%
CCOC(=O)C(=O)Nc1cc([N+](=O)[O-])ccc1C | 8.03%
Cc1ccc(NC(=O)N2CCCCCC2)c(C)c1 | 13%
COc1cccc(NC(=O)CN2CCCCCC2)c1.Cl | 16.3%
O=C(c1ccncc1)N(c1ccc2oc3c(c2c1)CCCC3)S(=O)(=O)c1ccc(F)cc1 | 13.4%
COC(=O)c1c(NC(=O)C2CC2)sc2c1CCCC2 | 11.6%
COc1cc(CN/C(C)=C(\C#N)C(N)=O)cc(OC)c1OC | 16.8%
Cc1ccc(OCCOC(=O)c2nc3nccc(C)n3n2)cc1 | 11.2%
C/C(=N\NC(=O)c1cc(C)nc2ccccc12)c1ccncc1 | 7.78%
CCO[C@@H]1OC(C(=O)NCc2nc3ccccc3[nH]2)=C[C@H](C2CC2)[C@H]1CCCO | 7.06%
COC(=O)c1ccc(C2/C(=C(\O)c3ccc4c(c3)OCCO4)C(=O)C(=O)N2CCCN(C)C)cc1 (centres unmarked) | -5.58%
O=C(Nc1ccccc1)Nc1ccc2c(c1)CCC2 | 17.6%
O=C1CN(c2ccc(F)cc2)C(=S)N1c1ccccc1 | 15%
Cc1ccccc1C(=O)NC(CC(C)C)C(=O)Nc1ccc(F)c([N+](=O)[O-])c1 (centres unmarked) | 10%
CCSc1n[nH]c(=S)s1 | 15.7%
COc1ccc(/C=N/NC(=O)/C(=C/c2ccccc2)CCO)cc1 | 11.7%
CCOC(=O)C1SC2(C(F)F)CC1(O)c1c(c(OC)c3occc3c1OC)O2 (centres unmarked) | 12.1%
CCCCCC(=O)N/N=C/c1cccs1 | 16.8%

Reference: PMC4336329 (PLoS ONE, 2015)
